Hit rate of the full screen: of about 310,000 compounds, about 2,200 (0.71%) showed an effect of 50% or more. The effect is printed as a negative number. The list shows a part of the results.
target: human ether-à-go-go-related gene (hERG) potassium channel (human, UniProt Q12809); experiment: primary screen, population patch clamp on CHO cells stably expressing hERG
Sequence (Q12809 whole entry, looked up): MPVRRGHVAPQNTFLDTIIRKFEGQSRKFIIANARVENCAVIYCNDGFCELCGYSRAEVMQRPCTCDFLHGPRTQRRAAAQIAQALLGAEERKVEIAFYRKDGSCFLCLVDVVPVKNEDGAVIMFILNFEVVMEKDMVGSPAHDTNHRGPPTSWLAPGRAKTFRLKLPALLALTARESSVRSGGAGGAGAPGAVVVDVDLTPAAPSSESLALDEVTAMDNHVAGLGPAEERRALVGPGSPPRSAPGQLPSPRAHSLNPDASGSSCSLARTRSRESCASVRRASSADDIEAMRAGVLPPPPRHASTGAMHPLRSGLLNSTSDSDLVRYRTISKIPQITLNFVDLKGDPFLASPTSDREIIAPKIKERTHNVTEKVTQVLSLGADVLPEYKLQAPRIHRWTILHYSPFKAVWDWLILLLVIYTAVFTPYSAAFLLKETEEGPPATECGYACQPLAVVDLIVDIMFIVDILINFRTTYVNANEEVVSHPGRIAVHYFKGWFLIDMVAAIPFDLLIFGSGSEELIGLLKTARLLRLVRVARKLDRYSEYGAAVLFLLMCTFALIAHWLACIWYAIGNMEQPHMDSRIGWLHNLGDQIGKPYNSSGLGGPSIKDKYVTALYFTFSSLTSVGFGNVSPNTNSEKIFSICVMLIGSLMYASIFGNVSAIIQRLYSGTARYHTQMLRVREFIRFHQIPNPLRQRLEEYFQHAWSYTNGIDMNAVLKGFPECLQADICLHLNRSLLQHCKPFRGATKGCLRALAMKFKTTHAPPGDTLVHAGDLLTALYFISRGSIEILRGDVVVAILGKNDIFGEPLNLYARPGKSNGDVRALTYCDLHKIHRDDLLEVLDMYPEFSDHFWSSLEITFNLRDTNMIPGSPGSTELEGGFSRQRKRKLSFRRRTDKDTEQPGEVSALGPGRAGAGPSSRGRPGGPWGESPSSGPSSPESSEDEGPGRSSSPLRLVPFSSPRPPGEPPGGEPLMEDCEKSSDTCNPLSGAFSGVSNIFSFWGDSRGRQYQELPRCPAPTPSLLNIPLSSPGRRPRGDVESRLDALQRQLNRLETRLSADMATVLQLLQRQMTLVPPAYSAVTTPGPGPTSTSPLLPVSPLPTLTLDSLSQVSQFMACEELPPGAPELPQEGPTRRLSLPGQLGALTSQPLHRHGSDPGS

Row | Compound | hERG current change (%, negative = inhibition) at 1uM [%]
1 | COc1ccc(NC(=O)CN2C(=O)CC(C)S(=O)(=O)c3ccccc32)cc1 (stereo not shown) | 9.84
2 | CCOC(=O)c1[nH]c(C)c(C(=O)OCC(=O)N(C)C2CCS(=O)(=O)C2)c1C (stereo not shown) | 19.2
3 | Cn1nc(C(F)(F)F)c(-c2cccc(C(F)(F)F)c2)c1NC(=O)c1ccco1 | -3.7
4 | CCCn1nnc(NC(=S)NC(=O)CC)n1 | 5.36
5 | COc1ccc2ncc(OC(C)=O)cc2c1 | 14.4
6 | O=C(NCc1nnc(SCC(=O)N2CCCC2)o1)c1ccccc1 | 17.4
7 | COc1cccc(CNC(=O)COC(=O)CNC(=O)c2ccc(-c3ccccc3)cc2)c1 | 12.4
8 | CC(C)Cc1nnc(NC(=O)c2ccc(N3CCCC3=O)cc2)s1 | 12.3
9 | COP(=O)(OC)C(Nc1ccc(C)cc1)c1ccc([N+](=O)[O-])cc1 (stereo not shown) | 6.97
10 | CCCN(CC(=O)Nc1ccccc1OC)Cc1c(O)ccc2ccccc12 | 11.9
11 | COc1cc(C(=O)Nc2cc(C(F)(F)F)ccc2N2CCOCC2)ccc1O | 4.25
12 | COc1cc(C(=O)NCC(=O)n2nc(C)cc2C)cc(OC)c1OC | 9.66
13 | CS(=O)(=O)N1N=C(c2ccc3nccnc3c2)CC1c1ccccc1 (stereo not shown) | -13
14 | COc1cc(Cl)c(C)cc1NC(=O)CSc1sc2c(O)cc(=O)[nH]c2c1C#N | 18.7
15 | Cc1cc(C)c(C(N)=O)c(SCC(=O)c2ccc(Cl)cc2)n1 | -2.4
16 | CCCc1[nH]nc2c1C(c1c(C)nn(-c3ccccc3)c1Cl)C(C#N)=C(N)O2 (stereo not shown) | 6.11
17 | Cc1ccc(C(=O)N2CCn3c(C)ccc3C2C)cc1 (stereo not shown) | 1.48
18 | O=C(COC(=O)c1ccccc1SCC(=O)N1CCCC1)NC1CCS(=O)(=O)C1 (stereo not shown) | 8.67
19 | C=CCSC1=C(C#N)C(c2ccccc2OC)CC(=O)N1 (stereo not shown) | 4.18
20 | O=C(Nc1ccccc1)c1cc2ccccc2o1 | 8.25
21 | NC(=O)C1CC(=O)N(c2ccc(OCC(=O)NCc3ccccc3)cc2)C1 (stereo not shown) | 11.3
22 | COc1ccc(C(=O)CC(=O)C(=O)NCCc2cccc(C)c2)cc1 | 6.12

Row | Compound | hERG current change (%, negative = inhibition) at 1uM [%]
23 | Cc1cc(NC(=O)CSc2nc3ccccc3n2CC(C)C)no1 | 16.1
24 | CC(C)C(=O)NC(NC(=S)Nc1ccc(S(N)(=O)=O)cc1)C(Cl)(Cl)Cl (stereo not shown) | 12.7
25 | Cc1ccc(-n2nnnc2SCc2nc3sc(C)c(C)c3c(=O)[nH]2)cc1 | -4.72
26 | CCCc1ccc(-c2cc(C(=O)Nc3ccc([N+](=O)[O-])cn3)c3ccccc3n2)cc1 | 5.79
27 | CCN(C(=O)COC(=O)CNC(=O)c1cccc(C)c1)c1c(N)n(Cc2ccccc2)c(=O)[nH]c1=O | 15.3
28 | COc1cccc(/C=N/NC(=O)c2cc3c(OC)ccc(OC)c3[nH]2)c1O | 20.1
29 | Cc1cc(N)n2nc(C(F)(F)F)nc2n1 | 14.4
30 | O=C(N/N=C/c1ccc(Cl)cc1)C(=O)N1CCCCCC1 | 14.7
31 | C[C@H](NC(=O)c1nc[nH]c1C(=O)N1CCN(c2ccccc2)CC1)C(=O)OC(C)(C)C | 11.7
32 | COc1ccc2c(c1)CC(C)C/C2=N\NC(=O)c1ccco1 (stereo not shown) | 18.5
33 | CCCCCCC(=O)N(O)C1CC(=O)N(Cc2ccccc2)C1=O (stereo not shown) | 3.36
34 | Cc1ccc(OC(=O)c2ccc(S(=O)(=O)N(C)C)cc2)c(-n2nc3ccccc3n2)c1 | 2.42
35 | O=C(OCN1C(=O)c2ccccc2C1=O)c1ccc(Cl)nc1 | 6.97
36 | Cc1cc(=O)[nH]c(N/N=C/c2sccc2C)n1 | 5.05
37 | O=C(CN(Cc1ccccc1Cl)C(=O)c1csnn1)NCCc1ccccc1 | 7.11
38 | CCCCNC(=O)COC(=O)c1cc(S(=O)(=O)N2CCCCCC2)ccc1OC | -8.75
39 | c1ccc(OCCOc2ncnc3ccccc23)cc1 | 11.4
40 | CC(C)NC(=O)CCCC(=O)NC(C)C | 14.6
41 | COc1cccc(CNC(=O)CSC(=S)N2CCCC2)c1 | 18.2
42 | O=C(CSc1nnc(CCCN2C(=O)c3cccc4cccc(c34)C2=O)n1-c1ccccc1)NCCCN1CCOCC1 | 2.25
43 | Cc1ccc(S(=O)(=O)N2CCC(C(=O)OCC(=O)N(C)CC(=O)Nc3ccc(F)cc3)CC2)cc1C | 5.88
44 | COCCN1C(=O)C(=O)/C(=C(/O)c2ccc(S(=O)(=O)N3CCOCC3)cc2)C1c1ccc(OC)c(OC)c1 (stereo not shown) | 10.6

Row | Compound | hERG current change (%, negative = inhibition) at 1uM [%]
45 | CC(C)CCNC(=O)C(=O)Nc1ccccc1 | -2.37
46 | COc1ccccc1N1C(=O)S/C(=C\c2ccc(C)s2)C1=O | 17.7
47 | COc1ccc2c(C)c(CC(=O)N3C[C@H]4C[C@@H](C3)c3cccc(=O)n3C4)c(=O)oc2c1OC | 4.86
48 | S=c1[nH]cc(-c2ccccc2)[nH]1 | 12.3
49 | CC(=O)CSc1nnc(-c2ccco2)n1-c1ccccc1 | 12
50 | Cn1cccc1/C=C1/SC(=O)N(CC(=O)N2CCCC2)C1=O | 9.51
51 | COc1ccc(-c2nc(C#N)c(NCc3ccco3)o2)cc1 | 11.8
52 | COc1cc(C)ccc1OCCOc1cc(C)ccc1Cl | 10.6
53 | Cc1ccccc1NC(=S)NC(NC(=O)N(C)C)C(Cl)(Cl)Cl (stereo not shown) | 11.9
54 | CN(C1CCCCC1)S(=O)(=O)c1ccc(C(=O)Nc2sc3c(c2C(N)=O)CC(C)(C)NC3(C)C)cc1 | 10.7
55 | CCOc1ccc2nc3c(cc2c1)CN(CCCO)C(=NCCOC)S3 | 12
56 | C=CCSc1nc2c(C(=O)OCC)nnn2c2ccccc12 | 8.5
57 | CC(OC(=O)c1cccc(-n2cnnn2)c1)C(=O)NCc1ccccc1 (stereo not shown) | 4.25
58 | CCOc1ccc(Oc2ccc(C(F)(F)F)cc2NC(=O)C2=COCCO2)cc1 | 9.87
59 | COCCNC(=O)Cc1c(C)c2cc3c(cc2oc1=O)OC(C)(C)CC3 | 11
60 | CCCc1nnc(NC(=O)c2ccc(N3C(=O)C4C5C=CC(C5)C4C3=O)cc2)s1 (stereo not shown) | 10.3
61 | CCc1ccc(NC(=O)Cn2nnc(C(=O)NCCc3ccc(OC)c(OC)c3)c2N)cc1 | 9.58
62 | Cc1occc1C(=O)N(C)CC1CCCN(CCc2ccccc2F)C1 (stereo not shown) | -11.3
63 | COc1ccccc1N1CCN(C(=O)c2ccc(CS(=O)(=O)c3ccccc3OC)o2)CC1 | 4.7
64 | C/C(=N/O)c1no[n+]([O-])c1/C(C)=N\O | 4.36
65 | O=C(CS(=O)(=O)c1cn(CC(=O)N2CCCC2)c2ccccc12)Nc1ccccc1 | 8.7
66 | O=C(NCc1ccccn1)c1n[nH]c2ccccc12 | 18.3

Row | Compound | hERG current change (%, negative = inhibition) at 1uM [%]
67 | O=C(NCc1ccccc1)C12CN(Cc3ccccc3)CC1C(c1ccc([N+](=O)[O-])cc1)=NO2 (stereo not shown) | -31.7
68 | COc1cccc(NC(=O)CN2C(=O)CSc3ccc(S(=O)(=O)N4CCC(C)CC4)cc32)c1 | 13
69 | CCOC(=O)c1ccc(NC(=O)Cn2nc(C)c3ccccc3c2=O)cc1 | 17.3
70 | COc1cc(SC)ccc1C(=O)N1CCN(Cc2ccccc2)CC1 | -29.2
71 | COc1cc(NC(=O)CCC(=O)OCCCC(F)(F)C(F)(F)F)nc(OC)n1 | 10.8
72 | COc1cc(Br)cc(CN2CCN(C)CC2)c1O | 1.77
73 | O=C(Nc1nc(-c2ccccc2)cs1)c1ccccc1NS(=O)(=O)c1ccc(F)cc1 | 14.4
74 | CSc1cccc(NS(=O)(=O)c2ccc(C(C)=O)cc2)c1 | -7
75 | COc1ccc(CC(=O)Nc2nnc(C(C)(C)C)s2)cc1OC | 5.69
76 | CCN(C(=O)CN1C(=S)NC(C)(C)CC1C)c1ccc(C)c(C)c1 (stereo not shown) | 9.5
77 | COC(=O)c1ccc(Cn2cnc3ccccc3c2=O)cc1 | -15.5
78 | Cc1c(NC(=O)CSc2ncccn2)c(=O)n(-c2ccccc2)n1C | 15
79 | COc1cccc(CCNCc2cccc(C(F)(F)F)c2)c1.O=C(O)C(=O)O | 14.4
80 | Cc1nn(CC(=O)NCc2cccc(F)c2)c(=O)c2cccn12 | 21.2
81 | O=C(Nc1nc(-c2ccccn2)cs1)C1CC(=O)N(c2ccc3c(c2)OCCO3)C1 (stereo not shown) | 3.21
82 | COc1ccc(COc2ccc(C3C(S(=O)(=O)c4ccccc4)CON3C)cc2OC)cc1 (stereo not shown) | 3.29
83 | CCOc1cccc(=O)c2c(C)n(C)c(C)c12 | -0.735
84 | COc1cccc(NC(=O)N2CCCCCC2)c1 | 10.9
85 | CN(C)S(=O)(=O)c1ccc(NS(=O)(=O)/C=C/c2ccccc2)cc1 | -5.11
86 | O=C/C(=C\Nc1ccc(Cl)cn1)c1nc2cc(Cl)ccc2o1 | 17.3
87 | CCn1c(SCc2ccc(C)cc2)nnc1-c1cnccn1 | -0.29
88 | O=C(O)CSc1nnc(Cn2nnc3ccccc32)n1CCc1ccccc1 | 17.1
